“And” between values parts separate entries of the source, which are not always exact repeats. Identical values can stand only once. The shares of active, inactive and inconclusive entries below differ from those in the screen. A potency beside an inconclusive call is a rough fit, not a confirmed value. The source made the active and inactive calls. Unless noted, the call rests on the fitted dose curve; in most records, active means well fitted curve in the direction sought with a large enough effect; inconclusive means small, poorly fitted or top-dose-only effect, or another doubt; inactive means no such curve, though single readings can be large; an effect the other way counts as inactive or inconclusive.
Experiments:
[1] = P-glycoprotein substrates identified in KB-8-5-11 adenocarcinoma cell line, qHTS therapeutic library screen (AID 1346987); further: nearly all actives have a fitted effect of over 65% in size
Outline: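 Human cervical adenocarcinoma KB-8-5-11 cells, selected in colchicine to over-express P-gp and assayed without it, were exposed for 72 h to titrated compounds. An ATP-based luminescent viability signal gave AC50.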

[2] = molecular target: Cytochrome P450 2C9 (Homo sapiens) (UniProt P11712); test: Cytochrome P450 family 2 subfamily C member 9 (CYP2C9) small molecule antagonists: luciferase biochemical (cell-free) qHTS assay (AID 1645842; active means well fitted curve in the direction sought with a large enough effect in the repeat runs; inconclusive means weak or mixed curves; inactive means no such curve, though single readings can be large; an effect the other way counts as inactive or inconclusive; further: nearly all actives have a fitted effect of over 55% in size)
Sequence of UniProt P11712 (P11712 whole entry, looked up): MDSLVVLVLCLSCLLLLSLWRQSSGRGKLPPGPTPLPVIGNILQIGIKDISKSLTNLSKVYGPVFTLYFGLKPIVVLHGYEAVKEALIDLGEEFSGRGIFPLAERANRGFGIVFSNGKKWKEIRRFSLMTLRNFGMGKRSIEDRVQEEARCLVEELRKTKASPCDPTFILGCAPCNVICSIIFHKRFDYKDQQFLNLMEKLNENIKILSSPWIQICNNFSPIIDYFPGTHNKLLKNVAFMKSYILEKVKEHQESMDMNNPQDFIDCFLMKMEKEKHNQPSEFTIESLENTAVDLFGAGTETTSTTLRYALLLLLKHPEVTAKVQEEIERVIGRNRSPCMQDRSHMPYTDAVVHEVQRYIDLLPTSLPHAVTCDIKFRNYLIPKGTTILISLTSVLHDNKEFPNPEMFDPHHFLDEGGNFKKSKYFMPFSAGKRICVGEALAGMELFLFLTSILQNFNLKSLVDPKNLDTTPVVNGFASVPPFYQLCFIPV
Outline: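 P450-Glo CYP2C9 system: proluciferin substrate with enzyme in mix containing 0.4% BSA, 10 min at room temperature, then NADPH regeneration solution added and incubated 1 h at 37C. Detection reagent stopped reaction; luminescence read after 20 min as RLU.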

[3] = Primary qHTS for inhibitors of nuclear receptor binding SET domain protein 2 (NSD2) in an isogenic RCH-ACV NSD2 p.E1099K mutant (9B) (AID 1645876); further: nearly all actives have a fitted effect of over 70% in size
[4] = Primary qHTS for inhibitors of nuclear receptor binding SET domain protein 2 (NSD2) in an RCH-ACV wild type WT cells (2C) (AID 1645877); settings: activity change, negative = cell killing: at 44.9 µM (top of the series); further: nearly all actives have a fitted effect of over 70% in size
HEK293 = test: Cytotoxic Profiling of Annotated Libraries Using Quantitative High-Throughput Screening (AID 1296008); settings: Five cell lines viability, CellTiter-Glo ATP luminescence, 48-72 h; max response: stronger effect = lower value; further: nearly all actives have a fitted effect of over 60% in size; on max response: on the % scale 0 is the no-effect control and ±100 the full control effect
Outline: (§1)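 Cytotoxicity was measured as CellTiter-Glo ATP luminescence, read after 10 min at room temperature. Compound treatment of the cells lasted 48 or 72 hr at 37 degrees Celsius in a qHTS format.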

HaCat = test: as above; settings: Five cell lines viability, CellTiter-Glo ATP luminescence, 48-72 h; max response: stronger effect = lower value
Outline: as §1

KB-3-1 = test: as above; settings: Five cell lines viability, CellTiter-Glo ATP luminescence, 48-72 h; max response: stronger effect = lower value
Outline: as §1

NIH3T3 = test: as above; settings: Five cell lines viability, CellTiter-Glo ATP luminescence, 48-72 h; max response: stronger effect = lower value
Outline: as §1

CAOV3 = test: Primary qHTS to identify gynecologic anti-cancer compounds using libraries of approved drugs and bioactive compounds (AID 1345084); settings: Gynecologic cancer cell panel viability, ATPlite luminescence, 48 h; series mostly up to 57.5 µM; further: nearly all actives have a fitted effect of over 55% in size; on activity change, negative = cytotoxicity: on the % scale 0 is the no-effect control and ±100 the full control effect
Outline: (§2)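 In this quantitative HTS, cell killing is estimated from loss of ATP-dependent luciferase light. Cells see five compound concentrations over a 48 h exposure.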

Es-2 = test: as above; settings: Gynecologic cancer cell panel viability, ATPlite luminescence, 48 h; series mostly up to 57.5 µM
Outline: as §2

Hek293T = test: as above; settings: Gynecologic cancer cell panel viability, ATPlite luminescence, 48 h, control line for the selectivity index; series mostly up to 57.5 µM
Outline: as §2

OV90 = test: as above; settings: Gynecologic cancer cell panel viability, ATPlite luminescence, 48 h; series mostly up to 57.5 µM
Outline: as §2

PA-1 = test: as above; settings: Gynecologic cancer cell panel viability, ATPlite luminescence, 48 h; series mostly up to 57.5 µM
Outline: as §2

SKOV3 = test: as above; settings: Gynecologic cancer cell panel viability, ATPlite luminescence, 48 h; series mostly up to 57.5 µM
Outline: as §2

Tov-21-G = test: as above; settings: Gynecologic cancer cell panel viability, ATPlite luminescence, 48 h; activity change, negative = cytotoxicity: at 57.5 µM (top of the series)
Outline: as §2

[5] = system: Zika virus NS2B-NS3 protease (unlinked complex); test: Primary screen GU Rhodamine qHTS for Zika virus inhibitors: Unlinked NS2B-NS3 protease assay (AID 1347159); further: nearly all actives have a fitted effect of over 60% in size
Outline: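 Enzyme 25 nM in Tris-HCl pH 8.0 + 0.01% Tween 20; compounds up to 114 microM, 15 min RT dark; + Rhod110 substrate 1.5 microM; read t0 and 15 min; delta fluorescence → % inhibition → 4-parameter Hill fit.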

[6] = molecular target: Cytochrome P450 2D6 (Homo sapiens) (UniProt P10635); test: Cytochrome P450 family 2 subfamily D member 6 (CYP2D6) small molecule antagonists: luciferase biochemical (cell-free) qHTS assay (AID 1645840; active means well fitted curve in the direction sought with a large enough effect in the repeat runs; inconclusive means weak or mixed curves; inactive means no such curve, though single readings can be large; an effect the other way counts as inactive or inconclusive; further: nearly all actives have a fitted effect of over 55% in size)
Sequence of UniProt P10635 (P10635 whole entry, looked up): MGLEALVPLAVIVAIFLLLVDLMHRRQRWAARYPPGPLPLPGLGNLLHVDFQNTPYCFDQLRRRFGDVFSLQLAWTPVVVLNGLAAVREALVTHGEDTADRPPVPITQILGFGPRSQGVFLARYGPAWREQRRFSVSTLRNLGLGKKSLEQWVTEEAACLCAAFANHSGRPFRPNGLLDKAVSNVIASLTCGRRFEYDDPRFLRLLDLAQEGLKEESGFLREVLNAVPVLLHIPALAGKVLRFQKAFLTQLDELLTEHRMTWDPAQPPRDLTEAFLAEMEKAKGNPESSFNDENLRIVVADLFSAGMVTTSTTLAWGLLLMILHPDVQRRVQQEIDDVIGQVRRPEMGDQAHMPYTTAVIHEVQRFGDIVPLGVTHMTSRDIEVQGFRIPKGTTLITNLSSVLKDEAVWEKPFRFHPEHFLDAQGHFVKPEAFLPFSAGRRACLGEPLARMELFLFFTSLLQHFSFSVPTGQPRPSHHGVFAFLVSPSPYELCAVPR
Outline: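 P450-Glo CYP2D6 system: proluciferin substrate converted by enzyme to luciferin, read by luminescence proportional to activity. Enzyme-substrate mix with compound 10 min at room temperature, then NADPH regeneration 1 h before detection reagent.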

[7] = Primary fluorescence-based thiol-reactive (MSTI) qHTS assay for identification of artifact compounds. (AID 1845221);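 further: thiol-reactive compounds lower the probe fluorescence signal; nearly all actives have a fitted effect of over 65% in size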
Outline: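 One-hour, room-temperature, dark incubation of compound with 4 uM MSTI in PBS (pH 7.4, 2% DMSO) precedes a fluorescence read at 525 nm excitation, 598 nm emission; Hill-equation fitting yields concentration-response values.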
Potency means the concentration at half of the fitted maximal effect; tags describe the fitted curve by direction and shape.

Structure (SMILES) | Potency [1] | Potency [2] | Potency [3] | Potency [4] | Potency (HEK293) | Potency (HaCat) | Potency (KB-3-1) | Potency (NIH3T3) | Potency (CAOV3) | Potency (Es-2) | Potency (Hek293T) | Potency (OV90) | Potency (PA-1) | Potency (SKOV3) | Potency (Tov-21-G) | Potency [5] | Potency [6] | Potency [7] | max response (HEK293)
O=C1Nc2nc(-c3c(O)cccc3OCC3CC3)cc([C@@H]3CCCNC3)c2CO1 | inconclusive: 20.6 µM [inhibitor, single point] | inconclusive: 23.9 µM [inhibitor, single point] | inconclusive: 6.61 µM [inhibitor, partial curve, poor fit] | active: 5.15 µM and inconclusive: 4.68 µM [inhibitor, full curve, poor fit] | active: 20.6 µM | inconclusive: 20.6 µM [inhibitor, single point] | inconclusive: 18.4 µM [inhibitor, single point] | inconclusive: 29.1 µM [inhibitor, single point] | inconclusive: 35.5 µM [cytotoxic, single point] | inconclusive: 39.8 µM [cytotoxic, single point] | inconclusive: 17.8 µM [cytotoxic, partial curve, poor fit] | inconclusive: 39.8 µM [cytotoxic, single point] | inconclusive: 31.6 µM [cytotoxic, single point] | inconclusive: 35.5 µM [cytotoxic, partial curve, poor fit] | active: 14.1 µM |  |  |  | 
C[C@]12CC[C@@H]3c4ccc(O)cc4CC[C@H]3[C@@H]1CC[C@@H]2OC(=O)CCC1CCCC1 | inconclusive: 18.4 µM [inhibitor, single point] | inconclusive: 27.5 µM [inhibitor, single point] | inconclusive: 12.9 µM [inhibitor, partial curve] |  | inconclusive: 29.9 µM [inhibitor, single point] | inconclusive: 0.944 µM [inhibitor, full curve] | inconclusive: 29.1 µM [inhibitor, single point] | inconclusive: 33.5 µM [inhibitor, single point] |  |  |  | inactive |  | inconclusive: 22.4 µM [rising, single point] |  | active: 20 µM | inactive |  | 
O=C(C=Cc1ccc(CN(CCO)CCc2c[nH]c3ccccc23)cc1)NO |  |  |  |  | active: 0.372 µM | active: 0.526 µM | active: 0.264 µM |  |  |  |  |  |  |  |  |  |  |  | 
Cc1ccc2nc(N)[nH]c(=O)c2c1Sc1ccncc1 | inconclusive: 18.4 µM [inhibitor, partial curve] and inconclusive: 20.6 µM [inhibitor, single point] | inconclusive: 38.9 µM [inhibitor, single point] and inconclusive: 756 nM [inhibitor, single point] | inconclusive: 841 nM [inhibitor, full curve, poor fit] and active: 2.3 µM | inconclusive: 750 nM [inhibitor, full curve, poor fit] | inconclusive: 4.73 µM [inhibitor, full curve] and active: 8.2 µM | active: 1.33 µM and active: 2.59 µM | inconclusive: 16.4 µM [inhibitor, single point] |  |  | inconclusive: 12.6 µM [cytotoxic, partial curve] |  |  | inconclusive: 7.94 µM [cytotoxic, full curve] |  | inconclusive: 15.8 µM [cytotoxic, partial curve, poor fit] |  |  | inconclusive: 2.38 µM [inhibitor, partial curve, poor fit] | 
C[C@@H](CN1CCC(n2c(=O)[nH]c3cc(Cl)ccc32)CC1)NC(=O)c1ccc2ccccc2c1 | active: 18.4 µM |  |  |  | inconclusive: 2.06 µM [inhibitor, partial curve, poor fit] | inconclusive: 29.1 µM [inhibitor, single point] | inconclusive: 18.4 µM [inhibitor, single point] | inconclusive: 23.1 µM [inhibitor, single point] | inconclusive: 15.8 µM [cytotoxic, single point] |  |  | inconclusive: 28.2 µM [cytotoxic, single point] | inconclusive: 7.08 µM [rising, single point] | inactive | inactive |  |  |  | 
CCCCCC(=O)O[C@]1(C(C)=O)CC[C@H]2[C@@H]3CCC4=CC(=O)CC[C@]4(C)[C@H]3CC[C@@]21C |  |  | inconclusive: 16.8 µM [inhibitor, single point] |  | inconclusive: 9.44 µM [inhibitor, partial curve, poor fit] | inconclusive: 33.5 µM [inhibitor, partial curve, poor fit] | inconclusive: 29.1 µM [inhibitor, single point] | inconclusive: 23.7 µM [inhibitor, single point] |  |  | inconclusive: 39.8 µM [cytotoxic, single point] | inconclusive: 35.5 µM [cytotoxic, single point] |  | inconclusive: 39.8 µM [cytotoxic, single point] |  |  |  |  | 
Cn1cnc(-c2nccc3c(=O)[nH]c(OCCCC(F)(F)F)nc23)c1 | inconclusive: 2.31 µM [inhibitor, full curve] |  | active: 2.9 µM |  | inconclusive: 18.4 µM [inhibitor, single point] | inconclusive: 7.31 µM [inhibitor, partial curve, poor fit] | inconclusive: 4.11 µM [inhibitor, full curve] | inconclusive: 25.9 µM [inhibitor, single point] |  | inconclusive: 35.5 µM [cytotoxic, single point] | inconclusive: 39.8 µM [cytotoxic, single point] | inconclusive: 35.5 µM [cytotoxic, single point] | inconclusive: 12.6 µM [cytotoxic, partial curve, poor fit] | active: 6.31 µM | inconclusive: 31.6 µM [cytotoxic, single point] | inconclusive: 17.8 µM [inhibitor, partial curve, poor fit] |  |  | 
CCN(CC)CCNC(=O)c1c(C)[nH]c(C=C2C(=O)Nc3ccc(F)cc32)c1C |  |  |  |  | active: 0.27 µM | inconclusive: 2.7 µM [inhibitor, full curve, poor fit] | active: 2.15 µM |  |  |  |  |  |  |  |  |  |  |  | 
COc1cc2c(cc1OC(C)C)[C@H](c1ccc(Cl)cc1)N(c1ccc(N(C)CC3CCC(N4CCN(C)C(=O)C4)CC3)cc1)C(=O)C2 (some centres not stated) | inconclusive: 23.1 µM [inhibitor, single point] |  |  |  |  | inconclusive: 7.31 µM [inhibitor, partial curve] | inconclusive: 29.1 µM [inhibitor, single point] | inconclusive: 20.6 µM [inhibitor, single point] |  |  |  |  | active: 11.2 µM | inactive | inconclusive: 1.78 µM [cytotoxic, full curve] | inconclusive: 56.2 µM [inhibitor, partial curve, poor fit] |  | inconclusive: 23.8 µM [inhibitor, partial curve, poor fit] | inactive: -97.2%
Cc1cc(C(=O)Nc2cc(Nc3ccc4c(/C=C/c5ccccn5)n[nH]c4c3)ccc2F)n(C)n1 |  | active: 4.25 µM |  |  | active: 11.6 µM | inconclusive: 25.9 µM [inhibitor, single point] | inconclusive: 20.6 µM [inhibitor, single point] | active: 0.731 µM |  |  | inconclusive: 39.8 µM [cytotoxic, single point] | inactive | inconclusive: 28.2 µM [cytotoxic, single point] | inconclusive: 39.8 µM [cytotoxic, single point] |  | inactive |  | active: 11.9 µM | 
Cc1ccc2c(Nc3ccc(Cl)cc3)nccc2c1Nc1ncccc1-c1ncnc2nc[nH]c12 | inconclusive: 16.4 µM [inhibitor, single point] |  |  | active: 20600 nM | inconclusive: 29.1 µM [inhibitor, single point] | inconclusive: 23.1 µM [inhibitor, single point] | inconclusive: 20.6 µM [inhibitor, single point] | inconclusive: 25.9 µM [inhibitor, single point] | inconclusive: 14.1 µM [cytotoxic, partial curve, poor fit] | inconclusive: 17.8 µM [cytotoxic, partial curve, poor fit] |  | active: 5.01 µM | inconclusive: 31.6 µM [cytotoxic, partial curve, poor fit] | active: 15.8 µM | inconclusive: 31.6 µM [cytotoxic, single point] |  | active: 12 µM | inconclusive: 6.7 µM [inhibitor, partial curve] | 
CCN(CC)CCCCNc1ncc2cc(-c3c(Cl)cccc3Cl)c(NC(=O)NC(C)(C)C)nc2n1 |  | active: 19 µM |  |  | inconclusive: 1.64 µM [inhibitor, partial curve, poor fit] | active: 20.6 µM | inconclusive: 20.6 µM [inhibitor, single point] | active: 1.16 µM | inconclusive: 39.8 µM [cytotoxic, single point] | inconclusive: 2.24 µM [cytotoxic, full curve, poor fit] | inconclusive: 28.2 µM [cytotoxic, single point] | active: 7.94 µM | active: 0.631 µM | inconclusive: 0.501 µM [cytotoxic, full curve, poor fit] | inconclusive: 0.708 µM [cytotoxic, full curve, poor fit] |  | inconclusive: 23.9 µM [inhibitor, single point] |  | 
